Experiment [1] deals with T1, SYCE2-TEX12 core LFIL (TEX12 L110E F114E I117E L121E) 2:2 complex (human) (UniProt Q6PIF2+Q9BXU0). As to the kind of experiment: negative-stain electron microscopy; co-purified complexes at 0.005-3 mg/ml on carbon-coated grids, 2% uranyl acetate; fibres detected and measured by image analysis; both purified.
The target of experiment [2] is T1, SYCE2-TEX12 core LFIL (TEX12 L110E F114E I117E L121E) 2:2 complex (human). As to the kind of experiment: SEC-SAXS; co-purified complexes at >5 mg/ml on Superdex 200 Increase 10/300 GL in 20 mM Tris pH 8.0, 150 mM KCl; both purified. In general terms: In gel filtration, larger molecules generally elute earlier.
The target is the same in experiment [3]. Nature of the experiment: SEC-MALS; co-purified complexes at >1 mg/ml on Superdex 200 Increase 10/300 GL in 20 mM Tris pH 8.0, 150 mM KCl, 2 mM DTT; in Fig. 1 core at 200 uM and full-length at 100 uM (4 mg/ml); both purified.
Experiment [4] has as its target T2, SYCE2 core (amino-acids 57-165) (human, UniProt Q6PIF2 57-165).
T2 construct: SYCE2, human, core, residues 57-165; also called SYCE2 structural core; source: E. coli BL21 (DE3), co-expressed with TEX12, purified (Ni-NTA, amylose, ion exchange, SEC); not shown: MBP, N-terminal, cleaved
T2 sequence (looked up): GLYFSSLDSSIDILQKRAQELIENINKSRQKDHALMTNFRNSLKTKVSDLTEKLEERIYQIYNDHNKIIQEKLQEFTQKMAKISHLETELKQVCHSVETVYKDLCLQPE
Nature of the experiment: SEC-SAXS; co-purified complexes at >5 mg/ml on Superdex 200 Increase 10/300 GL in 20 mM Tris pH 8.0, 150 mM KCl; both purified.

Experiment [5] addresses SYCE2-TEX12 full-length wild-type, 2:2 building block (human) (UniProt Q6PIF2+Q9BXU0). As to the kind of experiment: negative-stain electron microscopy; co-purified complexes at 0.005-3 mg/ml on carbon-coated grids, 2% uranyl acetate; fibres detected and measured by image analysis; both purified.
The target in experiment [6] is T3, SYCE2-TEX12 full-length LFIL (TEX12 L110E F114E I117E L121E) 2:2 complex (human) (UniProt Q6PIF2+Q9BXU0). Described as above.
Experiment [7] deals with T3, SYCE2-TEX12 full-length LFIL (TEX12 L110E F114E I117E L121E) 2:2 complex (human). Nature of the experiment: SEC-MALS; co-purified complexes at >1 mg/ml on Superdex 200 Increase 10/300 GL in 20 mM Tris pH 8.0, 150 mM KCl, 2 mM DTT; in Fig. 1 core at 200 uM and full-length at 100 uM (4 mg/ml); both purified.
Experiment [8] deals with SYCE2-TEX12 full-length FFV (TEX12 F102A F109A V116A), 2:2 building block (human) (UniProt Q6PIF2+Q9BXU0). Nature of the experiment: negative-stain electron microscopy; co-purified complexes at 0.005-3 mg/ml on carbon-coated grids, 2% uranyl acetate; fibres detected and measured by image analysis; both purified.

From publication PMC7612376, “Structural basis of meiotic chromosome synaptic elongation through hierarchical fibrous assembly of SYCE2-TEX12” (Nature structural & molecular biology, 2021) come the findings set out here.

Results are given in words; binding and its absence hold for the method and conditions named. Some entries that bind do so weakly or less than the wild type.

B1: SYCE2-TEX12 core LFIL (TEX12 L110E F114E I117E L121E) 2:2 complex (complex, UniProt Q6PIF2 57-165; Q9BXU0 49-123)
chain 1: GLYFSSLDSSIDILQKRAQELIENINKSRQKDHALMTNFRNSLKTKVSDLTEKLEERIYQIYNDHNKIIQEKLQEFTQKMAKISHLETELKQVCHSVETVYKDLCLQPE
chain 2: KDEALEKDLNDVSKEINLMLSTYAKLLSERAAVDASYIDEIDELFKEANAIENFLIQKREFERQRETVEANTEHR
Take B1: the binding entry in experiment [1] is reported as “no binding (tested: 0.005-3 mg/ml)”; in experiment [2] it was “no binding (tested: >5 mg/ml)”; in experiment [3], “no binding (tested: >1 mg/ml)”.

B2: TEX12 core L110E F114E I117E L121E (domain or fragment, human, UniProt Q9BXU0 49-123, looked up)
chain: KDEALEKDLNDVSKEINLMLSTYAKLLSERAAVDASYIDEIDELFKEANAIENFLIQKREFERQRETVEANTEHR
notes: TEX12, human, core, residues 49-123, with L110E, F114E, I117E and L121E; also called LFIL (core); source: E. coli BL21 (DE3), co-expressed with SYCE2, purified (Ni-NTA, amylose, ion exchange, SEC); not shown: His6, N-terminal, cleaved
As for B2, the binding entry in experiment [4] is “binds”.

B3: TEX12 core F102A F109A V116A (domain or fragment, human, UniProt Q9BXU0 49-123, looked up)
chain: KDEALEKDLNDVSKEINLMLSTYAKLLSERAAVDASYIDEIDELFKEANAIENALIQKREALRQRFTAIANTLHR
notes: TEX12, human, core, residues 49-123, with F102A, F109A and V116A; also called FFV (core); source: E. coli BL21 (DE3), co-expressed with SYCE2, purified (Ni-NTA, amylose, ion exchange, SEC); not shown: His6, N-terminal, cleaved
For the molecule B3, the binding result in experiment [4] is given as “binds”.

B4: SYCE2-TEX12 full-length wild-type, 2:2 building block (complex, human)
chain 1: MERQGVDVPHVKCKDQEPQPLGESKEHPRWEENCEEEAGGGPASASCQLTVLEGKSGLYFSSLDSSIDILQKRAQELIENINKSRQKDHALMTNFRNSLKTKVSDLTEKLEERIYQIYNDHNKIIQEKLQEFTQKMAKISHLETELKQVCHSVETVYKDLCLQPEQSLRLRWGPDHSRGKSPPRPGNSQPPDVFVSSVAETTSQATASEVQTNRDGEC
chain 2: MMANHLVKPDNRNCKRPRELESPVPDSPQLSSLGKSDSSFSEISGLFYKDEALEKDLNDVSKEINLMLSTYAKLLSERAAVDASYIDEIDELFKEANAIENFLIQKREFLRQRFTVIANTLHR
notes: SYCE2, human, full-length, residues 1-218; TEX12, human, full-length, residues 1-123; m2 + m9; also called full-length SYCE2-TEX12; source: E. coli BL21 (DE3), co-expressed, purified (Ni-NTA, amylose, ion exchange, SEC); not shown: MBP, N-terminal, cleaved; His6, N-terminal, cleaved; copies: 2 + 2
Regarding B4, the binding result in experiment [5] is given as “binds”.

B5: SYCE2-TEX12 full-length LFIL (TEX12 L110E F114E I117E L121E) 2:2 complex (complex, UniProt Q6PIF2 1-218; Q9BXU0 1-123)
chain 1: MERQGVDVPHVKCKDQEPQPLGESKEHPRWEENCEEEAGGGPASASCQLTVLEGKSGLYFSSLDSSIDILQKRAQELIENINKSRQKDHALMTNFRNSLKTKVSDLTEKLEERIYQIYNDHNKIIQEKLQEFTQKMAKISHLETELKQVCHSVETVYKDLCLQPEQSLRLRWGPDHSRGKSPPRPGNSQPPDVFVSSVAETTSQATASEVQTNRDGEC
chain 2: MMANHLVKPDNRNCKRPRELESPVPDSPQLSSLGKSDSSFSEISGLFYKDEALEKDLNDVSKEINLMLSTYAKLLSERAAVDASYIDEIDELFKEANAIENFLIQKREFERQRETVEANTEHR
Consider B5, for which the binding entry in experiment [6] is given as “no binding (tested: 0.005-3 mg/ml)”; in experiment [7], “no binding (tested: >1 mg/ml)”.

B6: SYCE2-TEX12 full-length FFV (TEX12 F102A F109A V116A), 2:2 building block (complex, human)
chain 1: MERQGVDVPHVKCKDQEPQPLGESKEHPRWEENCEEEAGGGPASASCQLTVLEGKSGLYFSSLDSSIDILQKRAQELIENINKSRQKDHALMTNFRNSLKTKVSDLTEKLEERIYQIYNDHNKIIQEKLQEFTQKMAKISHLETELKQVCHSVETVYKDLCLQPEQSLRLRWGPDHSRGKSPPRPGNSQPPDVFVSSVAETTSQATASEVQTNRDGEC
chain 2: MMANHLVKPDNRNCKRPRELESPVPDSPQLSSLGKSDSSFSEISGLFYKDEALEKDLNDVSKEINLMLSTYAKLLSERAAVDASYIDEIDELFKEANAIENALIQKREALRQRFTAIANTLHR
notes: SYCE2, human, full-length, residues 1-218; TEX12, human, full-length, residues 1-123, with F102A, F109A and V116A; m2 + m14; source: E. coli BL21 (DE3), co-expressed, purified (Ni-NTA, amylose, ion exchange, SEC); not shown: MBP, N-terminal, cleaved; His6, N-terminal, cleaved; copies: 2 + 2
Take B6: the binding result in experiment [8] is listed as “binds weakly”.
